# Laboratory results taken from PubChem BioAssay (NCATS).
# Several values for one entry are separate records, joined by “and”; a condition that tells them apart may be missing. Equal entries are not always repeated. Inconclusive results, whose numbers are uncertain, are shown with a selection of clear calls. For some of these results: Potencies of inconclusive entries are doubtful fits and often do not repeat. Activity calls are given as the source filed them. Unless noted, calls come from the whole dose curve; as a rule, active = well fitted curve in the direction sought with a large enough effect; inconclusive = small, poorly fitted or top-dose-only effect, or another doubt; inactive = no such curve, though single readings can be large; an effect the other way counts as inactive or inconclusive.
# Molecular target: Rap guanine nucleotide exchange factor 3 (Homo sapiens) (UniProt O95398)
# Assay: Confirmatory qHTS for antagonist of cAMP-regulated guanine nucleotide exchange factor 3 (EPAC1) (AID 1645880); note: nearly all actives have a fitted effect of over 55% in size
# Conditions: EPAC1 Rap1B-BODIPY-GDP exchange, fluorescence; series mostly up to 115 µM
# Procedure, shortened: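 Nucleotide exchange uses 100 nM EPAC1, 250 nM RAP1B-BODIPY-GDP and 50 uM GDP, with compounds in a concentration-titration series. After 5 min at room temperature, fluorescence (480 nm ex/540 nm em) is read every 5 min for 30 min. Data are normalized to control ATA and DMSO.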
# Potency is the fitted concentration of half-maximal effect; tags give direction and shape of the fitted curve.
# Chain of UniProt O95398 (O95398 whole entry, looked up): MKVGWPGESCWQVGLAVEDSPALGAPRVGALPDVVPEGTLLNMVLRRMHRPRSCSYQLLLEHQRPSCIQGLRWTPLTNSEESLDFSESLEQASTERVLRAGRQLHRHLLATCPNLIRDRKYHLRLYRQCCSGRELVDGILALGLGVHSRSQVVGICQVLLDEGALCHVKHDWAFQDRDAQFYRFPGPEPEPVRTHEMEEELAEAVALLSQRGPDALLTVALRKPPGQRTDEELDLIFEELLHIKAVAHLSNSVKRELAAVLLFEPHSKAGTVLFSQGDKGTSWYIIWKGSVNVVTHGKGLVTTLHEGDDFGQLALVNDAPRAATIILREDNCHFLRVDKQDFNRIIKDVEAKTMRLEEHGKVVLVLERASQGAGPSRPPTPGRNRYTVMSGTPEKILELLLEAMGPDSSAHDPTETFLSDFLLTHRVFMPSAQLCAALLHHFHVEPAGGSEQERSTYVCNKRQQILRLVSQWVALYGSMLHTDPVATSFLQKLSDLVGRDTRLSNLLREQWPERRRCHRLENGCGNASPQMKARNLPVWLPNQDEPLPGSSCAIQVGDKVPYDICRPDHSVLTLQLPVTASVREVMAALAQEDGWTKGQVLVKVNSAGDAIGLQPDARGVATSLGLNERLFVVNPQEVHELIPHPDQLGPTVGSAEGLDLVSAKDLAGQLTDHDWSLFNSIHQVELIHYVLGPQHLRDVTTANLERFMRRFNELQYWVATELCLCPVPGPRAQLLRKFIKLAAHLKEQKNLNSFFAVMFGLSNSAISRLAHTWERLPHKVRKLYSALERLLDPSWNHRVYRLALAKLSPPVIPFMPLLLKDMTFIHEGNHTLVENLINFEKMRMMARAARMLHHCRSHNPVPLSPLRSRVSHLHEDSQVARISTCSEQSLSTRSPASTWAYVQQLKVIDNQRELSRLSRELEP
row,Compound,Potency
1,c1ccc2c(Cc3c[nH]c4ccccc34)c[nH]c2c1,inactive
2,Nc1cc(-c2ccncc2)c[nH]c1=O,inactive
3,Oc1ccc(/C=C/c2cc(O)cc(O)c2)cc1,"inconclusive: 28 µM [inhibitor, partial curve] and inconclusive: 55.9 µM [inhibitor, partial curve, poor fit]"

# Molecular target: Rap guanine nucleotide exchange factor 4 (Homo sapiens) (UniProt Q8WZA2)
# Assay: Confirmatory qHTS for antagonist of cAMP-regulated guanine nucleotide exchange factor 4 (EPAC2) (AID 1645885); note: nearly all actives have a fitted effect of over 25% in size
# Conditions: EPAC2 Rap1B-BODIPY-GDP exchange fluorescence, biochemical; series mostly up to 114 µM
# Chain of UniProt Q8WZA2 (Q8WZA2 whole entry, looked up): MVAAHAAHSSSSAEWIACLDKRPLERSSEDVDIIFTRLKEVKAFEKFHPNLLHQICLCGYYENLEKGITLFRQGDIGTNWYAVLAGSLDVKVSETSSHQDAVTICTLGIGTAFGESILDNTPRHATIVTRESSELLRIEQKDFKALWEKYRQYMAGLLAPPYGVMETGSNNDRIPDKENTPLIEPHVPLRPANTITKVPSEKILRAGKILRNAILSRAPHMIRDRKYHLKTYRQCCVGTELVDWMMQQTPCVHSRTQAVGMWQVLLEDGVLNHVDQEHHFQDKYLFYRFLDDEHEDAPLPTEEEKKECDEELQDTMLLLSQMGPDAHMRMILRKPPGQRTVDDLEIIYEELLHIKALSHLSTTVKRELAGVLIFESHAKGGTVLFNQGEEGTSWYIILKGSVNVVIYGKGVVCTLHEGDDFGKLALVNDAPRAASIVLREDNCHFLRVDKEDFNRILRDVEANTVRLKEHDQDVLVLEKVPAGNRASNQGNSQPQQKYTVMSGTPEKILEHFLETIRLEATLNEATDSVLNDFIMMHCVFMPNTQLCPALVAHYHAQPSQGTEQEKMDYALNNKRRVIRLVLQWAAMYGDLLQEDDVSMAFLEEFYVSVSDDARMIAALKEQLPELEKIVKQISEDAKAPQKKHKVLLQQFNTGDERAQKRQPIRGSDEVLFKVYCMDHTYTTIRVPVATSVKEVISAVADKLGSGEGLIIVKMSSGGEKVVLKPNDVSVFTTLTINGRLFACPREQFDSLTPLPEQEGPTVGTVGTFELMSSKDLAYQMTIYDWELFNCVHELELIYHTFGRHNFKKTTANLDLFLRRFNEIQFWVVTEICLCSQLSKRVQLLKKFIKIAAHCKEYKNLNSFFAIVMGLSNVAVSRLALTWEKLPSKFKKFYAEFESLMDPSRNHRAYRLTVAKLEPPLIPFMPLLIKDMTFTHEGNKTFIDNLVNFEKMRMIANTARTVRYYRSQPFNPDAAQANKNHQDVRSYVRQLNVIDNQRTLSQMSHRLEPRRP
row,Compound,Potency
1,O=C(O)c1ccccc1Nc1cccc(C(F)(F)F)c1,"inconclusive: 62.2 µM [inhibitor, single point]"
2,c1ccc2c(Cc3c[nH]c4ccccc34)c[nH]c2c1,"inconclusive: 49.4 µM [inhibitor, partial curve]"
3,Nc1cc(-c2ccncc2)c[nH]c1=O,inactive

# System: not listed separately
# Assay: NCATS anti-infectives library activity on HEK293 viability as a counter-qHTS vs the C. elegans viability qHTS (AID 1745854);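 note: HEK293 cells exposed to compounds for 24 hr before the viability read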
# Conditions: HEK293 viability counter-screen; series mostly up to 41.8 µM
# Procedure, shortened: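 HEK293 cells (1,500/well) exposed 24 hr at 37C to 1:5 titrations, up to 41.7 uM final; counter-screen to a C. elegans viability qHTS. Viability by CellTiter-Glo luminescence after 10 min at room temperature; digitonin as control.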
row,Compound,Potency
1,Oc1ccc(/C=C/c2cc(O)cc(O)c2)cc1,inactive
2,O=C1c2c(O)ccc(O)c2C(=O)c2c(NCCNCCO)ccc(NCCNCCO)c21,active: 12.6 µM
3,CC(C)Cc1ccc(C(C)C(=O)O)cc1 (configuration not stated),inactive

# System: not listed separately
# Assay: NCATS anti-infectives library activity on the primary C. elegans qHTS viability assay (AID 1745855; calls by dose curve)
# Conditions: C. elegans worm area imaging, day 7; series mostly up to 41.8 µM
# Procedure, shortened: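 Viability read-out is GFP fluorescence of PE254-GFP-FLuc C. elegans, measured by laser cytometry (488 nm) at day 0, 3 and 7. Ten L1 worms per well were incubated 7 days at 21 °C with compounds and bacterial capsules in S medium.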
row,Compound,Potency
1,CCCCCCOc1ccccc1C(N)=O,"inconclusive: 2.9 µM [activator, partial curve, poor fit]"
2,CC(=O)Oc1ccccc1C(=O)Nc1ncc([N+](=O)[O-])s1,"inconclusive: 16.3 µM [inhibitor, single point]"
3,O=C1c2c(O)ccc(O)c2C(=O)c2c(NCCNCCO)ccc(NCCNCCO)c21,"inconclusive: 18.3 µM [inhibitor, single point]"

# Molecular target: Glutathione peroxidase 1 (Homo sapiens) (UniProt P07203)
# Assay: Primary qHTS Assay for Inhibitors of Recombinant Selenoprotein Glutathione Peroxidase 1 (GPX1) (AID 1845191); note: nearly all actives have a fitted effect of over 65% in size
# Conditions: recombinant GPX1, GR-coupled NADPH fluorescence, 15 min; series mostly up to 48.8 µM
# Procedure, shortened: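 GR-coupled assay: compounds preincubated 30 min at room temperature with GPX1, then reaction started with CHP; final 10 nM GPX1, 1 mM GSH, 0.5 mM CHP, 0.5 mM NADPH, 100 nM GR, 0.01% BSA, pH 7.5 Tris buffer. NADPH fluorescence (340/450 nm) read at 0 and 15 min.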
# Chain of UniProt P07203 (P07203 whole entry, looked up): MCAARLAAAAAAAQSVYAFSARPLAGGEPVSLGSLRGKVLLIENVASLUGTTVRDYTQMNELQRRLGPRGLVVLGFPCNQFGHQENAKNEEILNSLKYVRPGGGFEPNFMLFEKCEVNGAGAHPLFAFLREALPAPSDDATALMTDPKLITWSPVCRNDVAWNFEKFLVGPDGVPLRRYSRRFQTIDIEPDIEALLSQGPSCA
row,Compound,Potency
1,O=C(O)c1cc(O)c(O)c(O)c1,"inconclusive: 2.55 µM [inhibitor, partial curve]"
2,Nc1ccc(O)c(C(=O)O)c1,"inconclusive: 22.7 µM [inhibitor, partial curve, poor fit]"
3,CC(=O)Oc1ccccc1C(=O)Nc1ncc([N+](=O)[O-])s1,"inconclusive: 22.7 µM [inhibitor, single point]"
4,O=C1CCCC2=C1C(c1[nH]ncc1Cl)N=C(Nc1nc3ccccc3o1)N2 (configuration not stated),"inconclusive: 20.5 µM [inhibitor, single point]"
5,CCCc1nc2c(C)cc(-c3nc4ccccc4n3C)cc2n1Cc1ccc(-c2ccccc2C(=O)O)cc1,"inconclusive: 12.8 µM [inhibitor, partial curve]"

# Molecular target: Phospholipid hydroperoxide glutathione peroxidase GPX4 (Homo sapiens) (UniProt P36969)
# Assay: Primary qHTS Assay for Inhibitors of Recombinant Selenoprotein Glutathione Peroxidase 4 (GPX4) (AID 1845192); note: nearly all actives have a fitted effect of over 65% in size
# Conditions: recombinant GPX4, GR-coupled NADPH fluorescence, 15 min; series mostly up to 50 µM
# Procedure, shortened: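 GR-coupled assay: recombinant GPX4 preincubated 30 min with compound at room temperature; final 200 nM GPX4, 1 mM GSH, 0.5 mM cumene hydroperoxide, 0.5 mM NADPH, 100 nM GR, 0.01% BSA, pH 7.5 Tris. NADPH fluorescence (340/450 nm) read at 0 and 15 min.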
# Chain of UniProt P36969 (P36969 whole entry, looked up): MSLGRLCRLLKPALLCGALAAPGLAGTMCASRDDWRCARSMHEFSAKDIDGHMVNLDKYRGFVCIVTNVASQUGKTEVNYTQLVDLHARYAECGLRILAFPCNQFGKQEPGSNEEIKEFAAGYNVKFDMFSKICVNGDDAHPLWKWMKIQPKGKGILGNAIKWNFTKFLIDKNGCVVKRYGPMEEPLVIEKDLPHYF
row,Compound,Potency
1,CC(=O)Oc1ccccc1C(=O)Nc1ncc([N+](=O)[O-])s1,"inconclusive: 25.5 µM [inhibitor, single point]"
2,CCN1/C(=C/C(C)=O)Sc2ccc(OC)cc21,"inconclusive: 2.27 µM [inhibitor, full curve]"
3,O=c1c2ccccc2nc2n1CCc1c-2[nH]c2ccccc12,"inconclusive: 22.7 µM [inhibitor, single point]"
4,COc1ccc(C2CC(c3ccccc3)=NN2c2ccc(S(N)(=O)=O)cc2)cc1 (configuration not stated),"inconclusive: 2.27 µM [inhibitor, partial curve, poor fit]"
5,CS(=O)c1ccc(-c2nc(-c3ccc(F)cc3)c(-c3ccncc3)[nH]2)cc1 (configuration not stated),"active: 25.5 µM and inconclusive: 32.1 µM [inhibitor, single point]"
